Measurements published in a compilation of properties of binary mixtures (doi:10.1007/s10953-019-00868-0).
The densities may have been worked out from excess volumes.

Assay: xn = mol fraction of the nth substance listed
Conditions: 101.3 kPa

CCCC[n+]1ccn(C)c1.F[B-](F)(F)F + NCCNCCN
x1 = 1
Conditions	mass density [kg/m3]
313.15 K	1189.4
318.15 K	1186.8
323.15 K	1182.9
333.15 K	1176

NCCNCCN + CCCC[n+]1ccn(C)c1.F[B-](F)(F)F
mass density [kg/m3]
Conditions	298.15 K	303.15 K	308.15 K	313.15 K	318.15 K	323.15 K	328.15 K	333.15 K
x2 = 0	–	942.5	937.5	932.5	929.1	925.7	921.5	917.3
x2 = 0.051	968.9	965.9	961.5	956.9	–	951.1	947.4	943.6
x2 = 0.1986	1026.1	1023.1	1019	–	1012.1	1008.9	1005.2	–
x2 = 0.2998	1059.5	–	–	1048.7	1045.8	–	–	–
x2 = 0.3995	–	1085.4	1081.8	–	1075.1	–	–	1064.3
x2 = 0.4992	1113.6	–	1106.7	–	1100.1	1096.5	–	–
x2 = 0.5905	–	–	1126.3	1122.6	1119.9	–	1113.2	1109.6
x2 = 0.6974	1153.4	–	1146.4	–	1140	1136.5	–	–
x2 = 0.8012	1171.4	1167.9	1164.3	1160.3	1157.8	1154.2	1151.2	1147.6
x2 = 0.8948	1186.5	–	1179.4	1175.4	1173	1169.2	1166.3	1162.7
x2 = 0.9496	1194.6	1191	1187.6	1183.6	1181.3	–	1174.4	–
